These results are taken from PMC7016652.

Results are given in words; binding and its absence hold for the method and conditions named. In cells and extracts the contact can be indirect. Some binding calls cover weakened binding; strength is not graded here.

The target in assay [1] is GST–p53 (human) (UniProt P04637). As to the kind of experiment: pull-down; GST or GST-p53 purified from E. coli incubated with lysates of H1299 cells transfected with 6Myc-TAZ or its deletion mutants, TNTE buffer, 4 °C, 2 h; immunoblot; only the target purified. A general note: A western blot detects proteins with antibodies after separation by electrophoresis.
The target in assay [2] is 6Myc-p53 (human) (UniProt P04637). The assay is described as follows: co-IP; H1299 cells transiently transfected, lysed after 24 h in TNTE buffer (20 mM Tris-HCl pH 7.5, 120 mM NaCl, 1 mM EDTA, 0.5% Triton X 100); anti-FLAG M2 agarose beads, 4 °C, 2 h; eluted with 3× FLAG peptide; immunoblot.
For assay [3], the target named is p53 (a.a. 90–393) (human) (UniProt P04637). The assay is described as above.
For assay [4], the target named is p53 (a.a. 1–290) (human) (UniProt P04637). Described as above.
The target in assay [5] is p53 (a.a. 90–290) (human) (UniProt P04637). The assay is described as above.
Assay [6] has as its target endogenous TAZ of MCF7 cells (human (endogenous in MCF7)) (UniProt Q9GZV5). As to the kind of experiment: co-IP; endogenous proteins; MCF7 cells treated with 10 μM MG132 for 8 h; anti-TAZ antibody on Dynabeads Protein A; TNTE buffer; immunoblot.
In assay [7] the target is FLAG-TAZ (transcriptional coactivator with a PDZ-binding motif), full length (UniProt Q9GZV5). As to the kind of experiment: co-IP; H1299 cells transiently transfected, lysed after 24 h in TNTE buffer (20 mM Tris-HCl pH 7.5, 120 mM NaCl, 1 mM EDTA, 0.5% Triton X 100); anti-FLAG M2 agarose beads, 4 °C, 2 h; eluted with 3× FLAG peptide; immunoblot.
The target of assay [8] is FLAG-TAZ (a.a. 106–400) (UniProt Q9GZV5). Described as above.

Regarding “6Myc-TAZ C-terminal portion (a.a. 171–400) (from UniProt Q9GZV5 171-400) (domain or fragment)”, the binding entry in assay [1] is listed as “no binding”.

Consider “6Myc-TAZ N-terminal portion (a.a. 1–170) (from UniProt Q9GZV5 1-170) (domain or fragment)”, for which the binding entry in assay [1] is listed as “binds”.

For the substance “6Myc-TAZ, full length (from UniProt Q9GZV5 1-400)”, in assay [1], the binding result is recorded as “binds”.

For “TAZ (as co-expressed for Figure 4F) (from UniProt Q9GZV5 1-400)”, the binding result in assay [2] is given as “binds”. Take “TAZ (as transfected for Figure 3H) (from UniProt Q9GZV5 1-400)”: the binding result in assay [3] is “no binding”; in assay [4], “binds”; in assay [5] it was “no binding”. For “endogenous p53 of MCF7 cells (from UniProt P04637 1-393)”, in assay [6], the binding result is “binds”. As for “p53 (human, transfected) (from UniProt P04637 1-393)”, the binding result in assay [7] and in assay [8] was “binds” each time.
